Test results reported in PubChem BioAssay AID624202 (National Center for Advancing Translational Sciences (NCATS), 2012).
Hit rate of the full screen: of about 380,000 compounds, about 4,000 (1.1%) were called active. The shares of active, inactive and inconclusive entries below differ from those in the screen. Calls come from the whole dose curve; as a rule, active = well fitted activation curve with a large enough effect; inconclusive = small, poorly fitted or top-dose-only effect; inactive = no such curve, though single readings can be large or run the other way. Where the call is inconclusive, the potency comes from a doubtful curve fit.

Assay: qHTS Assay to Identify Small Molecule Activators of BRCA1 Expression; note: nearly all actives have a fitted effect of over 80% in size
Details: MCF7-BRCA1-FFLuc reporter, luminescence, 48 h; activation: at 46.1 µM (top of the series), scaled: vehicle 0%, 10 µM genistein 100% unless noted
Outline: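 MCF7 cells carrying a BRCA1-firefly luciferase reporter (2000 cells/well, phenol-red free MEM) were attached for 2 h at 37 °C, then given compounds for 48 h. Luminescence was read 15 min after luciferase reagent; activity normalized to genistein (10 microM) and DMSO.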
Potency is the fitted concentration of half-maximal effect; tags give direction and shape of the fitted curve.

SMILES	activation	Potency
Cc1ccc(Nc2nc(CSc3nnc(-c4ccncc4)n3C)cs2)cc1	inconclusive: 25.2% [activator]	–
CC(=O)c1ccc(NC(=O)Nc2ccncc2)cc1	–	inconclusive: 3.98 µM [activator, partial curve, poor fit]
CC(=O)C(Sc1nccc(-c2cccs2)n1)C(C)=O	–	inconclusive: 11.2 µM [activator, partial curve, poor fit]
O=[N+]([O-])c1ccc2nc(NS(=O)(=O)c3ccccc3[N+](=O)[O-])sc2c1	–	inconclusive: 12.6 µM [activator, partial curve, poor fit]
OC1(c2cccc(C(F)(F)F)c2)CCN(c2ccc(-c3ccccc3)nn2)CC1	–	inconclusive: 1.78 µM [activator, full curve, poor fit]
CCSc1nc(NCCN(C)C)c2c3c(sc2n1)COC(C)(CC)C3 (stereo unspecified)	inactive: 0%	–
COc1ccc2nc(SCC(=O)C(C)(C)C)[nH]c2c1	–	active: 7.94 µM
COC(=O)c1ccc(CN2C(=O)NC3(CCC(C)CC3)C2=O)cc1 (stereo unspecified)	–	inconclusive: 14.1 µM [activator, partial curve, poor fit]
COC(=O)c1ccc(CN(C)S(=O)(=O)c2cccs2)cc1	–	inconclusive: 14.1 µM [activator, partial curve, poor fit]
Cc1ccccc1NCc1nc2ccccc2n1C	–	inconclusive: 1.41 µM [activator, full curve, poor fit]
CCN(CC)CCCNC(=O)c1ccc2c3n(nc2c1)-c1ccc(Cl)cc1CO3	–	inconclusive: 2 µM [activator, full curve, poor fit]
COc1ccc(-n2ncc3c(NCc4cccnc4)ncnc32)cc1	inactive: 88.6%	–
CCOC(=O)Cn1c(=S)[nH]c2c(oc3ccc(Cl)cc32)c1=O	inactive: 0.817%	–
C/C(=N\NC(=O)c1ccoc1C)c1ccc(Br)s1	–	inconclusive: 11.2 µM [activator, partial curve, poor fit]
CCCCSc1nnc(-c2c[nH]c3ccccc23)n1C	–	inconclusive: 7.08 µM [activator, partial curve, poor fit]
C/C(=N\NC(=S)NCc1ccccc1)c1ccccc1	–	inconclusive: 35.5 µM [activator, single point]
O=C(NCCN1CCOCC1)c1noc2c1CCc1ccccc1-2	–	active: 7.94 µM
CN(C)C(=O)CSc1nc2ccc(C(=O)c3ccccc3)cc2[nH]1	–	inconclusive: 12.6 µM [activator, partial curve, poor fit]
O=C(Cc1cccs1)N/N=C/C=C/c1ccccc1[N+](=O)[O-]	–	inconclusive: 11.2 µM [activator, partial curve, poor fit]
O=C(NCCc1ccccc1)c1cnc2n(c1=O)CCS2	–	active: 7.08 µM
Nc1ccc(OCc2ccccc2)cc1	–	inconclusive: 3.98 µM [activator, partial curve, poor fit]
O=C(N/N=C/c1ccccn1)c1c[nH]c2ccccc12	–	inconclusive: 8.91 µM [activator, partial curve, poor fit]
Cc1ccc(NC(=O)CC(=O)c2ccc([N+](=O)[O-])cc2)cc1S(=O)(=O)Nc1cccc(Cl)c1	inactive: -42.1%	–
CC(NC(=O)c1cc(COc2ccccc2)on1)c1nccs1 (stereo unspecified)	–	inconclusive: 1.78 µM [activator, partial curve, poor fit]
O=C(c1cn[nH]c1)c1cc(F)ccc1O	inactive: 8.81%	–
COc1ccc(-c2csc(Nc3ccc(O)cc3)n2)cc1	–	inconclusive: 0.501 µM [activator, full curve, poor fit]

SMILES	activation	Potency
O=C1NCCN/C1=C\C(=O)c1ccc(F)cc1	–	inconclusive: 14.1 µM [activator, partial curve, poor fit]
CCOC(=O)c1c(-c2ccc(C)o2)csc1NC(=O)CSc1nncs1	inactive: -42.7%	–
CC(C)c1ccc(OCC(O)CN2CCN(c3ccccc3)CC2)cc1 (stereo unspecified)	–	inactive
COc1ccc(C(=O)NC(=S)NNC(=O)Cc2cccs2)cc1	inactive: -48.4%	–
CO/N=C(/COc1ccc(F)cc1)c1ccc(OC)cc1	inactive: -4.52%	–
c1ccc(CCNc2ncnc3ccccc23)cc1	–	active: 2 µM
Oc1ccc(-c2csc(NCc3ccco3)n2)cc1	–	inconclusive: 20 µM [activator, single point]
COc1ccc(CCC(=O)N2CCc3ccccc32)cc1	–	inconclusive: 11.2 µM [activator, partial curve, poor fit]
CCN(CC)CCOC(=O)c1c(C)oc2ccc(OC)cc12	–	inconclusive: 17.8 µM [activator, partial curve, poor fit]
CCCCOc1ccc(C2(C)CC(=O)NC2=O)cc1 (stereo unspecified)	–	active: 12.6 µM
CN(C(=O)c1ccc(NC(=O)Cc2ccc(NC(=O)C3CCN(C(=O)c4ccccc4)CC3)cc2)cc1)C1CC1	–	inconclusive: 35.5 µM [activator, single point]
CC(C)Oc1ccc(C(=O)Nc2ccc([N+](=O)[O-])cc2)cc1	–	inconclusive: 7.08 µM [activator, partial curve, poor fit]
Cc1ccc2c(c1)-c1ncc(C(=O)c3ccccc3O)cc1CO2	–	inconclusive: 11.2 µM [activator, partial curve, poor fit]
CC1CCc2c(sc3ncn(Cc4ccc(C(=O)O)cc4)c(=O)c23)C1 (stereo unspecified)	–	inconclusive: 20 µM [activator, single point]
COc1cccc(NC(=O)C(=S)NC2CCCCC2)c1	–	inconclusive: 2.24 µM [activator, full curve, poor fit]
Cc1cn(-c2ccc(Br)cc2)[nH]c1=O	–	inconclusive: 25.1 µM [activator, single point]
COc1ccccc1C(=O)C1CCCN(C(=O)c2cn3cc(Cl)ccc3n2)C1 (stereo unspecified)	inactive: -5.16%	–
Cc1c(Cl)cnc(NC(=O)CSc2nnc3ccccn23)c1Cl	–	inconclusive: 11.2 µM [activator, partial curve, poor fit]
Cc1nn(CC(=O)c2ccccc2Cl)c(C)c1[N+](=O)[O-]	–	active: 10 µM
O=C(O)CCc1ccc(S(=O)(=O)Nc2cc(C(F)(F)F)ccc2N2CCCC2)cc1	inactive: -4.89%	–
Cc1ccsc1/C=C1\SC(N2CCOCC2)=NC1=O	–	active: 11.2 µM
Cc1ccc(C(=O)Nc2nnc(C)s2)o1	inactive: 49.8%	–
O=C(NNC(=S)NC(=O)c1ccccc1Cl)c1cccc([N+](=O)[O-])c1	inactive: -29.4%	–
O=C(CCSc1ccc(Cl)cc1)NC1CCCCC1	inactive: 31.8%	–
Nc1ccc(O)c2c(=O)cc(-c3ccccc3Cl)oc12	–	active: 2.82 µM
Clc1ccc(OCc2noc(-c3ccsc3)n2)c(Cl)c1	–	active: 3.55 µM

SMILES	activation	Potency
FC(F)(F)c1ccccc1Cc1c(-c2ccccc2)nc2ccc(Cl)cn12	–	inconclusive: 7.94 µM [activator, partial curve, poor fit]
O=C(Nc1cccc2ccccc12)OCc1ccccc1	–	inconclusive: 15.8 µM [activator, single point]
O=C(N/N=C/c1cccc([N+](=O)[O-])c1)c1ccc(CN2CCOCC2)cc1	inactive: 23.6%	–
CCc1ccc(NC(=O)[C@H](Cc2ccccc2)N2Cc3ccccc3C2=O)cc1	inactive: 1.91%	–
Cc1ccc2oc(Nc3nc(C)c(C)c(C)n3)nc2c1	–	inconclusive: 2.51 µM [activator, full curve, poor fit]
Cc1ccc(C(=O)OC(C)C(=O)NCc2ccc3c(c2)OCO3)cc1S(=O)(=O)N1CCOCC1 (stereo unspecified)	inactive: 4.06%	–
Cc1cccc(Nc2nnc(SCC(=O)NC3CCCc4ccccc43)s2)c1C (stereo unspecified)	inactive: -70.9%	–
CCCc1ccc2oc(C(=O)N(C)Cc3nccs3)c(C)c2c1	–	inconclusive: 12.6 µM [activator, partial curve, poor fit]
CCNC(=O)CCc1nc(-c2ccc(C(C)(C)C)cc2)no1	inconclusive: -69.9% [activator]	–
OCCN1CCN(Cc2nc(-c3cccc(Cl)c3)no2)CC1	inactive: 46.5%	–
CCOC(=O)c1cnc(SCc2ccc(C(C)(C)C)cc2)nc1N	inconclusive: -21.6% [activator]	–
Cn1c2ccccc2c(=O)c2ccc(Cl)cc21	–	active: 14.1 µM
COc1ccc(N2C(=O)CC(Sc3nc4ccccc4s3)C2=O)cc1 (stereo unspecified)	inactive: 15.3%	–
COc1ccc2oc(=O)c(C(=O)Nc3ccccc3O)cc2c1	inconclusive: 86.1% [activator]	–
COc1ccc(N=C(C)C2=C(O)c3ccccc3C2=O)cc1	inconclusive: -34.5% [activator]	–
Oc1ccc(-c2cn3ccccc3n2)cc1O	–	inconclusive: 1.58 µM [activator, partial curve, poor fit]
O=C(Nc1ncccn1)c1cc([N+](=O)[O-])cc([N+](=O)[O-])c1	inactive: -35.6%	–
CCC1CCCCN1C(=O)CCCc1ccccc1 (stereo unspecified)	–	inconclusive: 14.1 µM [activator, partial curve, poor fit]
Cc1cccc(N/N=C/c2ccncc2)c1	–	inconclusive: 22.4 µM [activator, single point]
CCN1C(=NCc2cc(OC)c(OC)c(OC)c2)N[C@@H](c2ccccc2)C(C(=O)OC)=C1C	inactive: -6.66%	–
Cc1ccc(C(=O)OCC(=O)N2CCNC2=O)c(C)c1	–	inconclusive: 7.08 µM [activator, partial curve, poor fit]
CC(C)CCSc1nc2ccccc2[nH]1	–	inconclusive: 2 µM [activator, full curve, poor fit]
O=C(NCCc1ccccc1)C1=COCCO1	–	inconclusive: 2.24 µM [activator, full curve, poor fit]
O=c1oc2ccccc2cc1-c1cn(-c2ccccc2)c(=S)[nH]1	inconclusive: -67.2% [activator]	–
